Experimental data: the supplement of paper PMC4967469
By IC50 is meant the dose at which the fit gives 50% viability; fits outside the tested doses are given as limits. AUC sums up the same curve from the lowest dose to the 256-fold higher top dose; values near 1 show little effect. For some of these results: A top dose marked as inferred was calculated from the reported fits.

Tests used:
Experiment in all cases: Viability of human cancer cell lines after 72 h of drug (GDSC screen)
TGX221 = compound: Cc1cc(C(C)Nc2ccccc2)c2nc(N3CCOCC3)cc(=O)n2c1 [TGX221]; settings: top dose 10 µM
Experimental: (§1)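 Human cancer cell lines in 384-well plates, medium with 10% serum, drug for 72 h over a 256-fold dose range (nine 2-fold or five 4-fold steps up to the top dose). Adherent lines were fixed and stained with the nucleic acid dye Syto60, suspension lines read with resazurin; signal relative to control wells, capped at 0 and 100%. One two-parameter sigmoid per drug and line, fitted in a mixed model over all curves with the slope shared within a line.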

SB590885 = compound: CN(C)CCOc1ccc(-c2nc(-c3ccncc3)c(-c3ccc4c(c3)CC/C4=N\O)[nH]2)cc1 [SB590885]; settings: top dose 5 µM; top dose inferred
Experimental: as §1

Lapatinib = compound: CS(=O)(=O)CCNCc1ccc(-c2ccc3ncnc(Nc4ccc(OCc5cccc(F)c5)c(Cl)c4)c3c2)o1 [Lapatinib]; settings: top dose 2 µM
Experimental: as §1

PD-173074 = compound: CCN(CC)CCCCNc1ncc2cc(-c3cc(OC)cc(OC)c3)c(NC(=O)NC(C)(C)C)nc2n1 [PD-173074]; settings: top dose 2 µM; top dose inferred
Experimental: as §1

Cell Line | AUC (TGX221) | IC50 (TGX221) [µM] | AUC (SB590885) | IC50 (SB590885) [µM] | AUC (Lapatinib) | IC50 (Lapatinib) [µM] | AUC (PD-173074) | IC50 (PD-173074) [µM]
SW954 (urogenital system, adherent) | 0.977 | > 10 | 0.982 | > 5 | 0.868 | 1.85 | 0.938 | > 2
SW962 (urogenital system, adherent) | 0.972 | > 10 | 0.982 | > 5 | 0.791 | 1.15 | 0.72 | 0.619
TC-71 (Ewing sarcoma, adherent) | 0.992 | > 10 | 0.988 | > 5 | 0.991 | > 2 | 0.989 | > 2
TE-1 (oesophagus, adherent) | 0.9 | > 10 | 0.982 | > 5 | 0.774 | 0.999 | 0.982 | > 2
TE-5 (oesophagus, adherent) | 0.978 | > 10 | 0.969 | > 5 | 0.873 | > 2 | 0.978 | > 2
TE-6 (oesophagus, adherent) | 0.969 | > 10 | 0.971 | > 5 | 0.826 | 1.5 | 0.884 | > 2
TE-8 (oesophagus, adherent) | 0.968 | > 10 | 0.985 | > 5 | 0.906 | > 2 | 0.968 | > 2
TE-9 (oesophagus, adherent) | 0.87 | 9.95 | 0.919 | > 5 | 0.746 | 0.654 | 0.956 | > 2
TE-10 (oesophagus, adherent) | 0.965 | > 10 | 0.988 | > 5 | 0.908 | > 2 | 0.988 | > 2
TE-12 (oesophagus, suspension) | 0.935 | > 10 | 0.983 | > 5 | 0.703 | 0.532 | 0.978 | > 2
TE-15 (oesophagus, suspension) | 0.982 | > 10 | 0.975 | > 5 | 0.862 | > 2 | 0.957 | > 2
TGBC1TKB (biliary tract, adherent) | 0.961 | > 10 | 0.989 | > 5 | 0.898 | > 2 | 0.989 | > 2
TGW (neuroblastoma, adherent) | 0.99 | > 10 | 0.992 | > 5 | 0.991 | > 2 | 0.992 | > 2
TK10 (kidney, adherent) | 0.931 | > 10 | 0.981 | > 5 | 0.833 | 1.68 | 0.953 | > 2
TK (B-cell lymphoma, suspension) | 0.99 | > 10 | 0.99 | > 5 | 0.99 | > 2 | 0.99 | > 2
TUR (B-cell lymphoma, suspension) | 0.987 | > 10 | 0.988 | > 5 | 0.988 | > 2 | 0.984 | > 2
U-698-M (B-cell leukaemia, suspension) | 0.934 | > 10 | 0.987 | > 5 | 0.934 | > 2 | 0.986 | > 2
UACC-257 (melanoma, adherent) | 0.854 | > 10 | 0.677 | 1.1 | 0.981 | > 2 | 0.982 | > 2
VA-ES-BJ (soft tissue, adherent) | 0.975 | > 10 | 0.969 | > 5 | 0.969 | > 2 | 0.983 | > 2
VAL (B-cell lymphoma, suspension) | 0.956 | > 10 | 0.986 | > 5 | 0.977 | > 2 | 0.976 | > 2
VCaP (prostate, adherent) | 0.98 | > 10 | 0.961 | > 5 | 0.978 | > 2 | 0.971 | > 2
WIL2-NS (lymphoid neoplasm, suspension) | 0.992 | > 10 | 0.987 | > 5 | 0.992 | > 2 | 0.991 | > 2
WSU-DLCL2 (B-cell lymphoma, suspension) | 0.993 | > 10 | 0.993 | > 5 | 0.993 | > 2 | 0.992 | > 2
WSU-NHL (lymphoid neoplasm, suspension) | 0.961 | > 10 | 0.978 | > 5 | 0.989 | > 2 | 0.971 | > 2
YT (lymphoid neoplasm, suspension) | 0.987 | > 10 | 0.992 | > 5 | 0.989 | > 2 | 0.961 | > 2
no-11 (glioma, adherent) | 0.89 | > 10 | 0.945 | > 5 | 0.983 | > 2 | 0.967 | > 2
